The results in this text go back to publication PMC10310049.

The chains behind the UniProt entries cited, without tags or fusion partners. Where a name states a change or a piece, a line headed by the entry shows the natural chain unless it says otherwise.
UniProt P19474: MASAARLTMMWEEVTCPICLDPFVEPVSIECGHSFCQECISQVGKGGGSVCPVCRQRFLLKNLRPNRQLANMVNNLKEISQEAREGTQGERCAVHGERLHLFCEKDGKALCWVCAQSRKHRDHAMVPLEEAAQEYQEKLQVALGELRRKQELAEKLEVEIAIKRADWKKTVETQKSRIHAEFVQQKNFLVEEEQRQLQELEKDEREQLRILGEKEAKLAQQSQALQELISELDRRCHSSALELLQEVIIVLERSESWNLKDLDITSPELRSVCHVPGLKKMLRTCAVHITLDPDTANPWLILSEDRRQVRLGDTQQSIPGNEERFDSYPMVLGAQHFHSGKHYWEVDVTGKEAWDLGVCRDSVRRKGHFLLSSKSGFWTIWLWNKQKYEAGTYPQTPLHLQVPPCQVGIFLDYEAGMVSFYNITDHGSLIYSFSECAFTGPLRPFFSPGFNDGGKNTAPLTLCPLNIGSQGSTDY
UniProt P19525: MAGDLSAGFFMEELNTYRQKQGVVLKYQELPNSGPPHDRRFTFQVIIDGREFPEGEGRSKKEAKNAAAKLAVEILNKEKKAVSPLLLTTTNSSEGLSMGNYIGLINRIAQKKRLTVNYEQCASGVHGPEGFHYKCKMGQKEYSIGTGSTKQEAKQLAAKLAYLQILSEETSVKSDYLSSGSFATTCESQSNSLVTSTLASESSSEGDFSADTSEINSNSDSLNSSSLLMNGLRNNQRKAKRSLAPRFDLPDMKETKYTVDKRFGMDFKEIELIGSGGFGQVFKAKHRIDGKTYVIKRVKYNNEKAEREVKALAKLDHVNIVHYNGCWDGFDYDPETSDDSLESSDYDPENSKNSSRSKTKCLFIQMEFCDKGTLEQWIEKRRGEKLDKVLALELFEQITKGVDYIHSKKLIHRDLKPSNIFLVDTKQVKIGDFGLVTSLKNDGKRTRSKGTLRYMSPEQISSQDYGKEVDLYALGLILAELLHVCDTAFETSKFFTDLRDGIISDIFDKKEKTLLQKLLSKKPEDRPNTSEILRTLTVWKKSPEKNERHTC
UniProt P62136: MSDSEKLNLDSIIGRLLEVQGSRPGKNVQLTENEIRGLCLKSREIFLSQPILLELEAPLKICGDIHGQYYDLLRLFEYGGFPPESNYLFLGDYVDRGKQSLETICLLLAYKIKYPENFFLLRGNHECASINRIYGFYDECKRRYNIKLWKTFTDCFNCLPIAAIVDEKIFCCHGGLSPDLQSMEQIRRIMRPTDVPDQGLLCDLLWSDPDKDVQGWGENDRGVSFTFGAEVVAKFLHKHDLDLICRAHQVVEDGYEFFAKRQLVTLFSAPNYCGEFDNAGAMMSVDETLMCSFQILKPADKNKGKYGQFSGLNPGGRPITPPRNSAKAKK
UniProt P05198: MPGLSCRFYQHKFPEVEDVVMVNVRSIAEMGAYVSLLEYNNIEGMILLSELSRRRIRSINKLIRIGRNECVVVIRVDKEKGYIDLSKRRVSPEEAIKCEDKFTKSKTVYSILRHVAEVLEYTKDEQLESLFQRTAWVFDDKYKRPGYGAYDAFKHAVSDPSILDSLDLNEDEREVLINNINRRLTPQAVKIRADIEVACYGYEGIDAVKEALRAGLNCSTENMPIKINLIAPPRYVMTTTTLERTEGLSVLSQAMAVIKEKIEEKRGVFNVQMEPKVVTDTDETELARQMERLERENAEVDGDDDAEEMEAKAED

Results are given in words; binding and its absence hold for the method and conditions named. For part of these data: Binding seen in cells or lysates may run through a third protein. Some entries that bind do so weakly or less than the wild type.

Test [1] concerns the target TRIM21, endogenous in A549 cells (human (endogenous in A549)) (UniProt P19474). Put plainly: co-IP.
For test [2], the target named is Flag-tagged PKR (protein kinase R, dsRNA-dependent protein kinase), from p3xFlag-CMV-PKR (human (cDNA from HLCZ01 cells)) (UniProt P19525). The test is described as follows: co-IP; HEK293T cells co-transfected with tagged constructs for 48 h; IP Lysis Buffer; immunoprecipitation with anti-Flag antibody and Protein G Agarose; blots with anti-V5 or anti-Myc.
In test [3] the target is Flag-tagged TRIM21, from p3xFlag-CMV-TRIM21 (human (cDNA from HLCZ01 cells)) (UniProt P19474). The description is as above.
Test [4] addresses PKR (protein kinase R), endogenous in A549 cells (human (endogenous in A549)) (UniProt P19525). The test is described as follows: co-IP.
The target in test [5] is GST-TRIM21 protein purified from bacteria (human (cDNA from HLCZ01 cells)) (UniProt P19474). Put plainly: pull-down; both purified.

For “PKR (protein kinase R), endogenous in A549 cells (from UniProt P19525 1-551)”, the binding entry in test [1] is “binds”.

With “PP1α, endogenous in A549 cells (from UniProt P62136 1-330)”, the binding result in test [1] is listed as “binds”.

Regarding “Myc-tagged PP1α (serine/threonine protein phosphatase type 1 alpha), from pCMV-N-Myc-PP1α (from UniProt P62136 1-330)”, the binding entry in test [2] and in test [3] was “binds” each time.

As for “Flag-PP1α-K60R, from lentivirus, in PP1α-silenced A549 cells (from UniProt P62136 1-330)”, the binding entry in test [4] is “no binding”.

Take “Flag-PP1α-WT, from lentivirus, in PP1α-silenced A549 cells (from UniProt P62136 1-330)”: the binding result in test [4] is reported as “binds”.

In the case of “V5-tagged TRIM21, from pcDNA3.1a-TRIM21 (from UniProt P19474 1-475)”, in test [2], the binding result is “binds”.

Consider “V5-tagged eIF2α (α-subunit of eukaryotic translation initiation factor 2), from pcDNA3.1a-eIF2α (from UniProt P05198 1-315)”, for which, in test [3], the binding result is listed as “no binding”.

For the substance “Flag-PP1α protein purified from bacteria (from UniProt P62136 1-330)”, the binding result in test [5] is given as “binds”.
